# In the supplement of paper PMC6609913:
# Where a name gives a salt, the structure may show the parent alone. ± gives the standard deviation of the averaged measurements. Whole data set: some 1,300 compounds, median “normalised cell viability” near 1, cut for the lowest 2% near 0.14. The list shows a part of the results.
# Test system: V-C8 (BRCA2-deficient hamster cells)
# Assay: normalised cell viability (fraction of plate median); higher = more viable cells (less toxic)
# Settings: 5 µM
# How it was run: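 Hamster V-C8 cells with and without restored BRCA2 were exposed in 96-well plates to library drugs at 5 μM for 3 days (screen 1) or 6 days (screen 2). Cell viability was scored by resazurin assay, then median-plate normalised, averaging triplicate wells.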
smiles,measurement,setting,value
NS(=O)(=O)c1cc2c(cc1Cl)N=C(CSCc1ccccc1)NS2(=O)=O [Benzthiazide],normalised cell viability,treatment time: 3 days,1.01 ± 0.05
same,normalised cell viability,treatment time: 6 days,1.04 ± 0.11
O=C1C(CC[S+]([O-])c2ccccc2)C(=O)N(c2ccccc2)N1c1ccccc1 (stereo not drawn) [Sulfinpyrazone],normalised cell viability,treatment time: 3 days,1.02 ± 0.027
same,normalised cell viability,treatment time: 6 days,0.957 ± 0.16
C[C@]12C=CC(=O)C=C1CC[C@@H]1[C@@H]2[C@@H](O)C[C@@]2(C)[C@H]1CC[C@]2(O)C(=O)CO [Prednisolone],normalised cell viability,treatment time: 3 days,1.05 ± 0.076
same,normalised cell viability,treatment time: 6 days,1.02 ± 0.057
O=c1[nH]cc(F)c(=O)[nH]1 [5-fluorouracil],normalised cell viability,treatment time: 3 days,0.499 ± 0.029
same,normalised cell viability,treatment time: 6 days,0.467 ± 0.0059
CS(=O)(=O)c1ccc([C@@H](O)[C@@H](CO)NC(=O)C(Cl)Cl)cc1 [Thiamphenicol],normalised cell viability,treatment time: 3 days,0.72 ± 0.043
same,normalised cell viability,treatment time: 6 days,0.74 ± 0.0092
CC(C)Cc1ccc([C@H](C)C(=O)O)cc1 [S-(+)-ibuprofen],normalised cell viability,treatment time: 3 days,1.03 ± 0.068
same,normalised cell viability,treatment time: 6 days,0.858 ± 0.15
CC(=O)Oc1cc(C(F)(F)F)ccc1C(=O)O [Triflusal],normalised cell viability,treatment time: 3 days,1.04 ± 0.056
same,normalised cell viability,treatment time: 6 days,1.06 ± 0.075
C[C@@H](c1ncncc1F)[C@](O)(Cn1cncn1)c1ccc(F)cc1F [Voriconazole],normalised cell viability,treatment time: 3 days,1.16 ± 0.088
same,normalised cell viability,treatment time: 6 days,1.01 ± 0.034
O=C(O)Cc1ccccc1Nc1c(Cl)cccc1Cl [Diclofenac sodium],normalised cell viability,treatment time: 3 days,1.13 ± 0.069
same,normalised cell viability,treatment time: 6 days,1.04 ± 0.042
CN1CCN(CCCN2c3ccccc3Sc3ccc(S(=O)(=O)N(C)C)cc32)CC1 [Thioproperazine dimesylate],normalised cell viability,treatment time: 3 days,0.91 ± 0.086
same,normalised cell viability,treatment time: 6 days,0.901 ± 0.04
CC(=O)OCC(=O)[C@@]1(O)CC[C@H]2[C@@H]3CCC4=CC(=O)C=C[C@]4(C)[C@@]3(F)[C@@H](O)C[C@@]21C [Isoflupredone acetate],normalised cell viability,treatment time: 3 days,1.01 ± 0.027
same,normalised cell viability,treatment time: 6 days,0.968 ± 0.031
C#C[C@]1(O)CC[C@H]2[C@@H]3[C@H](C)CC4=C(CCC(=O)C4)[C@H]3CC[C@@]21C [Tibolone],normalised cell viability,treatment time: 3 days,0.998 ± 0.097
same,normalised cell viability,treatment time: 6 days,0.929 ± 0.13
CN(C)CCCOc1nn(Cc2ccccc2)c2ccccc12 [Benzydamine hydrochloride],normalised cell viability,treatment time: 3 days,1.35 ± 0.032
same,normalised cell viability,treatment time: 6 days,1.24 ± 0.19
Nc1ccc(S(=O)(=O)Nc2ccc(Cl)nn2)cc1 [Sulfachloropyridazine],normalised cell viability,treatment time: 3 days,0.93 ± 0.051
same,normalised cell viability,treatment time: 6 days,0.9 ± 0.072
COc1cc2nc(N3CCN(C(=O)C4CCCO4)CC3)nc(N)c2cc1OC (stereo not drawn) [Terazosin hydrochloride],normalised cell viability,treatment time: 3 days,1.002 ± 0.0071
same,normalised cell viability,treatment time: 6 days,1.09 ± 0.025
O=c1[nH]c(=O)n([C@H]2C[C@H](O)[C@@H](CO)O2)cc1F [Floxuridine],normalised cell viability,treatment time: 3 days,0.208 ± 0.0077
same,normalised cell viability,treatment time: 6 days,0.251 ± 0.018
CNNCc1ccc(C(=O)NC(C)C)cc1 [Procarbazine hydrochloride],normalised cell viability,treatment time: 3 days,0.998 ± 0.16
same,normalised cell viability,treatment time: 6 days,0.9631 ± 0.0049
C[N+]1(C)CCC(=C(c2ccccc2)c2ccccc2)CC1 [Diphemanil methylsulfate],normalised cell viability,treatment time: 3 days,0.966 ± 0.024
same,normalised cell viability,treatment time: 6 days,1.01 ± 0.052
NS(=O)(=O)c1cc2c(cc1Cl)NCNS2(=O)=O [Hydrochlorothiazide],normalised cell viability,treatment time: 3 days,1.02 ± 0.013
same,normalised cell viability,treatment time: 6 days,0.999 ± 0.031
CN(C)CCC=C1c2ccccc2C=Cc2ccccc21 [Cyclobenzaprine hydrochloride],normalised cell viability,treatment time: 3 days,1.03 ± 0.041
same,normalised cell viability,treatment time: 6 days,1.18 ± 0.3
CC(C)OC(=O)CCC/C=C\C[C@@H]1[C@@H](CC[C@@H](O)CCc2ccccc2)[C@H](O)C[C@@H]1O [Latanoprost],normalised cell viability,treatment time: 3 days,1.13 ± 0.11
same,normalised cell viability,treatment time: 6 days,1.05 ± 0.041
COc1cc(C)c(/C=C/C(C)=C/C=C/C(C)=C/C(=O)O)c(C)c1C [Acitretin],normalised cell viability,treatment time: 3 days,0.943 ± 0.052
same,normalised cell viability,treatment time: 6 days,0.999 ± 0.015
CC(c1cc2ccccc2s1)N(O)C(N)=O (stereo not drawn) [Zileuton],normalised cell viability,treatment time: 3 days,1.042 ± 0.0058
same,normalised cell viability,treatment time: 6 days,1.04 ± 0.032
CC(=O)Oc1cc(C(C)C)c(OCCN(C)C)cc1C [Moxisylyte hydrochoride],normalised cell viability,treatment time: 3 days,1.129 ± 0.011
same,normalised cell viability,treatment time: 6 days,1.06 ± 0.089
CC[C@]12CCCN3CCc4c(n(c5ccccc45)C(=O)C1)[C@@H]32 [Eburnamonine (-)],normalised cell viability,treatment time: 3 days,0.362 ± 0.016
same,normalised cell viability,treatment time: 6 days,0.643 ± 0.11
CCn1cc(C(=O)O)c(=O)c2cc(F)c(N3CCN(C)CC3)cc21 [Pefloxacine],normalised cell viability,treatment time: 3 days,0.981 ± 0.064
same,normalised cell viability,treatment time: 6 days,1.02 ± 0.028
C[C@@H]1CN(c2c(F)c(N)c3c(=O)c(C(=O)O)cn(C4CC4)c3c2F)C[C@H](C)N1 [Sparfloxacin],normalised cell viability,treatment time: 3 days,0.9 ± 0.016
same,normalised cell viability,treatment time: 6 days,0.941 ± 0.016
C[C@]12C=CC(=O)C=C1CC[C@@H]1[C@@H]2C(=O)C[C@@]2(C)[C@H]1CC[C@]2(O)C(=O)CO [Prednisone],normalised cell viability,treatment time: 3 days,0.899 ± 0.052
same,normalised cell viability,treatment time: 6 days,1.03 ± 0.048
CNC(=C[N+](=O)[O-])NCCSCc1csc(CN(C)C)n1 [Nizatidine],normalised cell viability,treatment time: 3 days,1.05 ± 0.023
same,normalised cell viability,treatment time: 6 days,1.07 ± 0.032
CCn1cc(C(=O)O)c(=O)c2cc(F)c(N3CCNC(C)C3)c(F)c21 (stereo not drawn) [Lomefloxacin hydrochloride],normalised cell viability,treatment time: 3 days,0.996 ± 0.095
same,normalised cell viability,treatment time: 6 days,0.923 ± 0.12
CS(=O)(=O)Nc1ccc([N+](=O)[O-])cc1Oc1ccccc1 [Nimesulide],normalised cell viability,treatment time: 3 days,1.06 ± 0.046
same,normalised cell viability,treatment time: 6 days,1.03 ± 0.037
COc1cc(C)nc(-n2nc(C)cc2OC)n1 [Epirizole],normalised cell viability,treatment time: 3 days,1.05 ± 0.059
same,normalised cell viability,treatment time: 6 days,0.97 ± 0.037
CCc1c2c(nc3ccc(OC(=O)N4CCC(N5CCCCC5)CC4)cc13)-c1cc3c(c(=O)n1C2)COC(=O)[C@]3(O)CC [Irinotecan Hydrochloride],normalised cell viability,treatment time: 3 days,0.147 ± 0.013
same,normalised cell viability,treatment time: 6 days,0.18 ± 0.0066
CNCCC=C1c2ccccc2CCc2ccccc21 [Nortriptyline hydrochloride],normalised cell viability,treatment time: 3 days,0.77 ± 0.082
same,normalised cell viability,treatment time: 6 days,0.786 ± 0.052
